These results are taken from PubChem BioAssay (NCATS).

Each structure is given as a SMILES string. This is one part of the list. Further columns of the screen follow, without active or inactive calls. Compounds called inactive in the main read-out are mostly missing here. Potencies come from curve fits of mixed quality, noted in brackets.
Tags give direction and shape of the fitted curve.

The assay can be described thus: Cell-based coincidence reporter assay to measure PMP22 gene transcription in S16 Pmp22-F2sN cells - Confirmatory screen (AID 1508646). The settings on record: S16 Schwann cells Pmp22-F2sN, dual luciferase, 24 h; measured here: FLuc reporter channel. In short, it runs like this:
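S16 rat Schwann cells carrying FLuc-2A-NLuc reporter in Pmp22 3' UTR (500-1,000 cells/well) treated with pinned compounds for 24 h at 37C. Dual-luciferase reads: FLuc luminescence first, then NLuc after Stop&Glo.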
A general note: Reporter assays use an easily measured gene product as a stand-in for the process of interest.
On to `COc1ccc(Nc2c3c(nc4ccccc24)CCC3)cc1Cl`, for which the AC50 (in general, the concentration giving half of the maximal activity seen) was 19.3 µM [falling, partial curve, poor fit].

On to `Cc1ccc(CNC(=O)Cn2c(=O)n(Cc3ccccc3)c(=O)c3sc4ccccc4c32)cc1`, for which the AC50 was 19.3 µM [falling, partial curve].

`CCN(CC)CCCNC(=O)c1ccc2c(c1)sc1nc(-c3ccc(C)cc3)cn12`: the AC50 was 13.7 µM [falling, full curve].

With `Cc1nnc(SCC(=O)NCc2ccccc2Cl)c2nn(-c3ccccc3)c(C)c12`, the AC50 is 13.7 µM [falling, partial curve, poor fit].

`CN(C)CCNC(=O)c1ccc(-n2c(-c3ccccc3)cc3c2CCCC3)cc1`: the AC50 was 19.3 µM [falling, partial curve].

With `CCCn1c2ccccc2c2cnn(CC(=O)NCC3CCN(Cc4ccc(C)cc4)CC3)c(=O)c21`, the AC50 is 24.3 µM [falling, partial curve].

For `Cc1ccc(OCCSc2nc3ccc(NC(=O)c4ccc5c(c4)OCO5)cc3s2)cc1`, the AC50 is 19.3 µM [falling, partial curve, poor fit].

With `Cc1ccc(CCNC(=O)C2CCN(c3nnc(-n4cccc4CNc4ccc(C)cc4)s3)CC2)cc1`, the AC50 is 10.9 µM [falling, partial curve].

Turning to `COc1ccc(NC(=O)CCS(=O)(=O)c2nc(-c3cccs3)cc(C(F)(F)F)n2)cc1`, the AC50 was 10.9 µM [falling, partial curve].

In the case of `COc1nnc(-c2ccc(N3CCCCC3)c(NC(=O)c3ccccc3)c2)c2ccccc12`, the AC50 is 43.2 µM [falling, single point].

In the case of `CCOc1ccc2nc(NC(=O)c3nc(SC(C)C)ncc3Cl)sc2c1`, the AC50 is 30.6 µM [falling, partial curve].

As for `COc1ccc(-c2nnc(SCC(=O)NCc3ccccc3)nc2-c2ccc(OC)c(OC)c2)cc1OC`, the AC50 was 6.11 µM [falling, partial curve, poor fit].

With `COc1ccccc1CNC(=O)CCCCn1c(=O)c2ccccc2n(Cc2ccccc2C)c1=O`, the AC50 was 27.3 µM [falling, partial curve, poor fit].

Take `CCOc1ccc(NC(=O)CSc2oc(-c3ccccc3)nc2S(=O)(=O)c2ccc(Cl)cc2)cc1`: the AC50 was 19.3 µM [falling, partial curve].

Regarding `COc1ccc(-n2nc3c(N4CCCC(C(=O)NCCc5ccccc5C)C4)nnc(C)c3c2C)cc1` (stereo not given), the AC50 is 24.3 µM [falling, partial curve].

In the case of `CC(C)CCNC(=O)CSc1c2c(nc3ccc(Cl)cc13)CCCC2`, the AC50 was 21.7 µM [falling, partial curve].

On to `CCCS(=O)(=O)c1ncc(Cl)c(C(=O)Nc2c(C(=O)Nc3ccccc3)oc3ccccc23)n1`, for which the AC50 is 8.62 µM [falling, full curve].

As for `CCc1ccc(NCc2cc3cc(OC)c(OC)cc3n(CC(=O)Nc3cc(C)ccc3C)c2=O)cc1`, the AC50 is 34.3 µM [falling, single point].

`Cc1c(Cl)cccc1Nc1nn2c(=O)c3ccc(C(=O)NCCc4ccccc4)cc3nc2s1`: the AC50 is 13.7 µM [falling, full curve].

Turning to `CCc1ccc(NC(=O)Cn2c(=O)n(-c3ccc(OC)cc3)c(=O)c3ccc(C(=O)NCc4ccc(C)cc4)cc32)cc1`, the AC50 was 12.2 µM [falling, partial curve].

Regarding `COc1ccccc1Nc1nn2c(=O)c3ccc(C(=O)Nc4ccc(F)cc4)cc3nc2s1`, the AC50 was 5.44 µM [falling, full curve].

With `O=C(CCS(=O)(=O)c1ccccc1)N(Cc1cccnc1)c1nc2c(F)cccc2s1`, the AC50 was 10.9 µM [falling, full curve].

Consider `COc1ccc(NC(=O)c2cc3c(s2)-c2c(C)cccc2OC3)cc1Cl`, for which the AC50 is 21.7 µM [falling, partial curve].

For the compound `CC(C)c1ccc(NC(=O)N2CCN(c3ccc(Cl)c(Cl)c3)CC2)cc1`, the AC50 was 27.3 µM [falling, partial curve, poor fit].

With `Cc1ccc(Cn2c(C)c3cnn(CC(=O)NCc4ccccc4)c(=O)c3c2C)cc1`, the AC50 was 15.3 µM [falling, partial curve, poor fit].

With `CCCN(CCC)CCCNC(=O)c1cc2c(=O)oc3ccc(C)cc3c2s1`, the AC50 was 10.9 µM [falling, partial curve].

In the case of `COc1ccc(CN2CCN(c3ncnc4sc5c(c34)CCCC5)CC2)cc1F`, the AC50 is 17.2 µM [falling, partial curve].

As to `Cc1ccc(CNC(=O)c2ccc(Cn3c(=O)c4ccccc4n(CC(=O)Nc4c(C)cc(C)cc4C)c3=O)cc2)cc1`, the AC50 is 9.68 µM [falling, full curve].

Take `CCOC(=O)N1CCN(Cc2nc3cc(NC(=O)CC)ccc3n2C(C)C)CC1`: the AC50 is 3.43 µM [falling, full curve, poor fit].

Regarding `Cc1ccc(-n2nc3c(N4CCC(C(=O)NCCc5ccccc5C)CC4)nnc(C)c3c2C)cc1`, the AC50 was 19.3 µM [falling, partial curve].

In the case of `O=C(c1ccc(C(F)(F)F)cc1)N1CCC(c2nc(-c3ccc(S(=O)(=O)N4CCCC4)cc3)no2)CC1`, the AC50 is 9.68 µM [falling, full curve, poor fit].

Consider `CC(C)COc1ccccc1C1CC(=O)Nc2cc3c(cc21)OCO3` (stereo not given), for which the AC50 is 21.7 µM [falling, partial curve].

As for `COC(=O)CS(=O)(=O)c1nc2ccccc2nc1N1CCCCC1`, the AC50 was 12.2 µM [falling, partial curve].

`O=C(Nc1ccc(Br)c2cccnc12)c1cccc2ccccc12`: the AC50 was 17.2 µM [falling, partial curve, poor fit].

For `CCOc1ccc(NC(=O)c2cc3sc(Cl)cc3n2CC)cc1`, the AC50 is 30.6 µM [falling, single point].

For the compound `COc1ccc(-c2noc(CSc3nnc(-c4ccncc4)n3-c3ccc(C)c(C)c3)n2)cc1`, the AC50 was 19.3 µM [falling, partial curve].

In the case of `COc1ccc(C)cc1Nc1c2c(nc3ccccc13)CCC2`, the half-maximal activity concentration (AC50) was 3.85 µM [falling, full curve, poor fit].

On to `CCOc1cc(C(Nc2cc(C)ccn2)c2ccc3cccnc3c2O)ccc1OC` (stereo not given), for which the AC50 was 17.2 µM [falling, partial curve].

Turning to `Cc1ccc(C)c(NC(=O)Cn2c(=O)n(Cc3ccco3)c(=O)c3oc4ccccc4c32)c1`, the AC50 is 21.7 µM [falling, partial curve].

`Cc1ccc(Nc2c3c(nc4ccccc24)CCC3)cc1F`: the AC50 is 24.3 µM [falling, partial curve].
